# Laboratory results reported in the supplement of paper PMC8728848.
# The list shows a part of the results.
# B1: PNA (Arachis hypogaea), P02872 (protein)
# chain: MKPFCVFLTFFLLLAASSKKVDSAETVSFNFNSFSEGNPAINFQGDVTVLSNGNIQLTNLNKVNSVGRVLYAMPVRIWSSATGNVASFLTSFSFEMKDIKDYDPADGIIFFIAPEDTQIPAGSIGGGTLGVSDTKGAGHFVGVEFDTYSNSEYNDPPTDHVGIDVNSVDSVKTVPWNSVSGAVVKVTVIYDSSTKTLSVAVTNDNGDITTIAQVVDLKAKLPERVKFGFSASGSLGGRQIHLIRSWSFTSTLITTTRRSIDNNEKKIMNMASA
# Assays:
# Assay in all cases: glycan array binding signal (z-score within array); higher = stronger binding
# Details in all cases: glycan notation: IUPAC condensed, linker removed
# [1] = target: GlcNAc(b1-2)[GlcNAc(b1-4)]Man(a1-3)[GlcNAc(b1-2)[GlcNAc(b1-6)]Man(a1-6)]Man(b1-4)GlcNAc(b1-4)GlcNAc
# Method in brief: (§1)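 Columns mapping to the same glycan were averaged after glycan names were converted to IUPAC-condensed notation. The data come from 3228 arrays in the Consortium for Functional Glycomics database, limited to those with an available protein sequence. Binding is reported as a within-array Z-score averaged across arrays of one protein sequence and across linkers.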
# [2] = target: GlcNAc(b1-2)[GlcNAc(b1-4)]Man(a1-3)[GlcNAc(b1-4)][GlcNAc(b1-2)Man(a1-6)]Man(b1-4)GlcNAc(b1-4)GlcNAc
# Method in brief: as §1
# [3] = target: GlcNAc(b1-2)[GlcNAc(b1-4)]Man(a1-3)[GlcNAc(b1-4)][GlcNAc(b1-2)[GlcNAc(b1-6)]Man(a1-6)]Man(b1-4)GlcNAc(b1-4)GlcNAc
# Method in brief: as §1
# [4] = target: GlcNAc(b1-2)[GlcNAc(b1-4)]Man(a1-3)[GlcNAc(b1-4)][GlcNAc(b1-2)[GlcNAc(b1-6)]Man(a1-6)]Man(b1-4)GlcNAc(b1-4)[Fuc(a1-6)]GlcNAc
# Method in brief: as §1
# [5] = target: GlcNAc(b1-2)[GlcNAc(b1-6)]Man(a1-6)[GlcNAc(b1-2)Man(a1-3)]Man(b1-4)GlcNAc(b1-4)GlcNAc
# Method in brief: as §1
# [6] = target: GlcNAc(b1-2)[GlcNAc(b1-6)]Man(a1-6)[GlcNAc(b1-2)Man(a1-3)]Man(b1-4)GlcNAc(b1-4)[Fuc(a1-6)]GlcNAc
# Method in brief: as §1
# [7] = target: GlcNAc(b1-2)[GlcNAc(b1-6)]Man(a1-6)[GlcNAc(b1-2)Man(a1-3)][GlcNAc(b1-4)]Man(b1-4)GlcNAc(b1-4)GlcNAc
# Method in brief: as §1
# [8] = target: GlcNAc(b1-2)[GlcNAc(b1-6)]Man(a1-6)[GlcNAc(b1-4)][GlcNAc(b1-2)Man(a1-3)]Man(b1-4)GlcNAc(b1-4)GlcNAc
# Method in brief: as §1
# [9] = target: GlcNAc(b1-3)Fuc
# Method in brief: as §1
# [10] = target: GlcNAc(b1-3)Gal
# Method in brief: as §1
# [11] = target: GlcNAc(b1-3)Gal(b1-3)GalNAc
# Method in brief: as §1
# [12] = target: GlcNAc(b1-3)Gal(b1-4)Glc
# Method in brief: as §1
# [13] = target: GlcNAc(b1-3)Gal(b1-4)GlcNAc
# Method in brief: as §1
# [14] = target: GlcNAc(b1-3)Gal(b1-4)GlcNAc(b1-2)Man(a1-3)[GlcNAc(b1-3)Gal(b1-4)GlcNAc(b1-2)Man(a1-6)]Man(b1-4)GlcNAc(b1-4)GlcNAc
# Method in brief: as §1
# [15] = target: GlcNAc(b1-3)Gal(b1-4)GlcNAc(b1-2)Man(a1-3)[GlcNAc(b1-3)Gal(b1-4)GlcNAc(b1-2)Man(a1-6)]Man(b1-4)GlcNAc(b1-4)[Fuc(a1-6)]GlcNAc
# Method in brief: as §1
# [16] = target: GlcNAc(b1-3)Gal(b1-4)GlcNAc(b1-2)[GlcNAc(b1-3)Gal(b1-4)GlcNAc(b1-6)]Man(a1-6)[GlcNAc(b1-3)Gal(b1-4)GlcNAc(b1-2)Man(a1-3)]Man(b1-4)GlcNAc(b1-4)GlcNAc
# Method in brief: as §1
# [17] = target: GlcNAc(b1-3)Gal(b1-4)GlcNAc(b1-3)Gal(b1-4)GlcNAc
# Method in brief: as §1
# [18] = target: GlcNAc(b1-3)Gal(b1-4)GlcNAc(b1-3)Gal(b1-4)GlcNAc(b1-2)Man(a1-3)[GlcNAc(b1-3)Gal(b1-4)GlcNAc(b1-3)Gal(b1-4)GlcNAc(b1-2)Man(a1-6)]Man(b1-4)GlcNAc(b1-4)GlcNAc
# Method in brief: as §1
# [19] = target: GlcNAc(b1-3)Gal(b1-4)GlcNAc(b1-3)Gal(b1-4)GlcNAc(b1-2)Man(a1-3)[GlcNAc(b1-3)Gal(b1-4)GlcNAc(b1-3)Gal(b1-4)GlcNAc(b1-2)Man(a1-6)]Man(b1-4)GlcNAc(b1-4)[Fuc(a1-6)]GlcNAc
# Method in brief: as §1
# [20] = target: GlcNAc(b1-3)Gal(b1-4)GlcNAc(b1-3)Gal(b1-4)GlcNAc(b1-2)[GlcNAc(b1-3)Gal(b1-4)GlcNAc(b1-3)Gal(b1-4)GlcNAc(b1-6)]Man(a1-6)[GlcNAc(b1-3)Gal(b1-4)GlcNAc(b1-3)Gal(b1-4)GlcNAc(b1-2)Man(a1-3)]Man(b1-4)GlcNAc(b1-4)[Fuc(a1-6)]GlcNAc
# Method in brief: as §1
# [21] = target: GlcNAc(b1-3)Gal(b1-4)GlcNAc(b1-3)Gal(b1-4)GlcNAc(b1-3)Gal(b1-4)GlcNAc(b1-2)Man(a1-3)[GlcNAc(b1-3)Gal(b1-4)GlcNAc(b1-3)Gal(b1-4)GlcNAc(b1-3)Gal(b1-4)GlcNAc(b1-2)Man(a1-6)]Man(b1-4)GlcNAc(b1-4)GlcNAc
# Method in brief: as §1
# [22] = target: GlcNAc(b1-3)Gal(b1-4)GlcNAc(b1-3)Gal(b1-4)GlcNAc(b1-3)Gal(b1-4)GlcNAc(b1-2)Man(a1-3)[GlcNAc(b1-3)Gal(b1-4)GlcNAc(b1-3)Gal(b1-4)GlcNAc(b1-3)Gal(b1-4)GlcNAc(b1-2)Man(a1-6)]Man(b1-4)GlcNAc(b1-4)[Fuc(a1-6)]GlcNAc
# Method in brief: as §1
binder,measurement,setting,value
B1,glycan array binding signal (z-score),[1],1.9
same,glycan array binding signal (z-score),[2],-0.195
same,glycan array binding signal (z-score),[3],-0.288
same,glycan array binding signal (z-score),[4],-0.309
same,glycan array binding signal (z-score),[5],-0.171
same,glycan array binding signal (z-score),[6],-0.234
same,glycan array binding signal (z-score),[7],-0.103
same,glycan array binding signal (z-score),[8],-0.151
same,glycan array binding signal (z-score),[9],-0.218
same,glycan array binding signal (z-score),[10],-0.192
same,glycan array binding signal (z-score),[11],-0.203
same,glycan array binding signal (z-score),[12],-0.081
same,glycan array binding signal (z-score),[13],-0.145
same,glycan array binding signal (z-score),[14],0.227
same,glycan array binding signal (z-score),[15],0.22
same,glycan array binding signal (z-score),[16],0.663
same,glycan array binding signal (z-score),[17],-0.096
same,glycan array binding signal (z-score),[18],0.821
same,glycan array binding signal (z-score),[19],0.509
same,glycan array binding signal (z-score),[20],1.3
same,glycan array binding signal (z-score),[21],0.851
same,glycan array binding signal (z-score),[22],0.774
